Results reported in ChEMBL document CHEMBL4888484, “Replenishing the malaria drug discovery pipeline: Screening and hit evaluation of the MMV Hit Generation Library 1 (HGL1) against asexual blood stage Plasmodium falciparum ,using a nano luciferase reporter read-out” (2022).
Among all 150,000 compounds or so, about 540 (0.36%) showed an effect of 50% or more. This is one part of the list.

System: Plasmodium falciparum
Assay: Primary screen in NF54 nanoGlo assay, in single point, at 2uM, 72h; a lower Z score goes with more inhibition
Assay type: functional, Erythrocyte
Details: timepoint 72 hour

Compound | % Inhibition [%] | Z score
CC(C)(C)c1coc(CNC(=O)NCc2noc3c2CCCC3)n1 | -15 | 2.94
CCNc1nc(C(=O)N2CCO[C@H](c3ccsc3)C2)cs1 | -9 | 1.5
O=C(O)Cc1ccc(/C=C/C2CCCCC2)nc1 | -6 | 0.92
Cn1cncc1[C@H]1C[C@@H]1c1nc(-c2ccoc2)no1 | -13 | 1.71
Cn1cccc(C(=O)Nc2nc(C3CC3)cs2)c1=O | -7 | 0.78
O=C(c1csc2c1CCCC2)N1CCN(Cc2ccc3c(c2)OCO3)CC1 | -3 | 0.47
Cn1nc(C2CCCCC2)cc1[C@H]1CN2CC[C@H]1C[C@@H]2CNC(=O)CC(C)(C)CC(=O)O | 9 | -1.01
COCc1nc(N2CCC(c3n[nH]cc3C)CC2)cc([C@H]2C[C@@H](N)C2)n1 | -6 | 0.99
CCN(CCn1cccn1)c1nncc(-c2cc3ccccc3o2)n1 | -23 | 2.98
O=C(c1ccc(Br)o1)n1cccn1 | -7 | 0.83
Cc1noc(C(C)NC(=O)C2CCCN2c2ncnc3sccc23)n1 (stereo not given) | 3 | -0.44
CC(C)(C)C(=O)NC[C@H]1CCN(C/C=C/c2ccccc2)C1 | 4 | -0.56
COCCN1CCCn2nc([C@H]3CCCN(Cc4cc(F)cc(F)c4)C3)cc2C1=O | -18 | 3.35
COc1ccc(Cl)cc1NC(=O)c1cn2c(n1)COCC2 | -11 | 1.72
O=C(NC1Cc2ccccc2C1)c1ccc2c(c1)OCCO2 | -13 | 1.28
CCOC(=O)Cc1csc(NC(=O)CCc2c(C)[nH]c(=O)n(C)c2=O)n1 | 2 | -0.25
Cc1ccc(C(=O)N2C[C@@H](CO)[C@H](NC(=O)c3ccccc3)C2)cc1F | -8 | 1.32
CC(C)[C@H]1C=CCN1C(=O)c1ccc(CCC(C)(C)O)cc1 | -2 | 0.32
C[C@H]1CN(C2=Nc3ccc(C(F)(F)F)cc3Oc3ccccc32)CCN1C(=O)C1CCCCC1 | -10 | 0.96
CCOc1ccc(OCc2snnc2C)cc1 | 2 | -0.39
CC(C)(C)c1ccc(C2(NS(=O)(=O)CC#N)CC2)cc1 | -15 | 1.3
Cc1cnc(NC2CCC(O)CC2)nc1NC1CCC(O)CC1 (stereo not given) | 8 | -1.06
CCn1c(-c2ccccc2)nnc1N1CCN(C(C)=O)C[C@@H]1C | -4 | 0.83
CCOc1ccc(Nc2c(C(=O)N3CCOCC3)cnc3nc(C)ccc23)cc1 | -5 | 0.78
Cc1cc(-c2cccc(C(=O)N(C)Cc3noc(C4CC4)n3)c2)ccc1Cl | -15 | 1.52
O=c1[nH]cnc2c1CN(c1cncc(OC3CCCCC3)n1)CC2 | -16 | 2.11
CC(C)c1nnc(CN2CC3C4CCC(O4)C3C2)o1 (stereo not given) | -5 | 0.65
CC[C@@H](C(=O)N(C)C)N(C)Cc1nncn1CC | 4 | -0.55

Compound | % Inhibition [%] | Z score
CCCCC(=O)N1CCC[C@H](c2cc(N3CCOCC3)nc(C)n2)C1 | -2 | 0.28
CC(C)(C)C(=O)N1CC(N2C(=O)COC2=O)C1 | -9 | 1.06
Cc1onc(C(=O)N2CC[C@@H](n3c(=O)n(C)c4cccnc43)C2)c1Cn1cccn1 | -13 | 1.65
Cc1ocnc1C(=O)N1CCC[C@H]1c1nccs1 | -15 | 2.02
CCCC[C@@H](COC)NC(=O)NC1CCC(O)CC1 (stereo not given in full) | -10 | 1.96
Cc1csc([C@H](C)NC(=O)C2(N3CCCC3)CCCCC2)n1 | -19 | 2.4
CC(C)n1cnnc1CNC1CCN(c2nnc(-c3ccccc3)s2)CC1 | -9 | 1.34
O=C(Nc1cccc(CO)c1)C1=CCCCO1 | -9 | 1.08
c1cc2c(cc1CN1CCC[C@H](Nc3ccc4c(c3)OCO4)C1)CCO2 | -12 | 1.46
CC(C)c1cc(C(=O)NCC2CCN(S(=O)(=O)c3cccs3)CC2)on1 | 2 | -0.38
O=C([C@H]1CCCN(c2nnc(N3CCCCC3=O)s2)C1)N1CCN(c2ccccc2)CC1 | 10 | -1.91
O=C(COc1ccc2ccccc2c1)Nn1cnc2ccccc2c1=O | 3 | -0.42
CNS(=O)(=O)Nc1ccc(NC(=O)C2CC(=O)C2)cc1 | -10 | 1.14
COCCNCc1csc(COc2cccc3ccccc23)n1 | -5 | 0.88
COc1nnc(NC(=O)N2CCC[C@H]2c2cccs2)s1 | -11 | 1.66
CC1(C)OC[C@H](CNC(=O)c2cncn2-c2ccc(-c3ccc(F)c(F)c3)cc2)O1 | 3 | -0.38
Cc1cc(C(=O)Nc2ccccc2-c2cn3c(n2)CCCC3)n(C)n1 | 13 | -1.72
COC(C)(C)c1cn(Cc2csc(C)n2)nn1 | -17 | 2.31
Cc1ccc(F)cc1NCc1cncn1C | 0 | -0.04
NC[C@@H](C(=O)N1CCc2sccc2C1)c1ccccc1 | -3 | 0.4
CCOC(=O)[C@@H]1CC[C@H](NC(=O)N2CCOC(CC)C2)C1 (stereo not given in full) | -7 | 0.73
CN1CCN(c2ccnc(NC(=O)c3ccc4c(c3)NC(=O)C4(C)C)c2)CC1 | 3 | -0.48
Cc1nc(Cn2ccnc2[C@H](O)c2ccc(F)cc2)no1 | -9 | 1.21
Cc1cc(C(=O)N2C[C@H]3CC[C@@H](C2)[C@H]3O)c(C)o1 | -18 | 1.83
Cc1cnc2c(Cl)c(C(=O)NCCS(=O)(=O)N3CCCC3)nn2c1 | -7 | 0.8
CC(C)Cn1ncnc1CN1CCOc2ccc(F)cc21 | -6 | 0.82
CCOC(=O)N1CCN(C(=O)C[C@@H]2N=C(O)N(c3cccc4ccccc34)C2=O)CC1 | 4 | -0.57
